Results taken from PubChem BioAssay AID485344 (National Center for Advancing Translational Sciences (NCATS), 2010).
The campaign covered roughly 340,000 compounds. About 6,900 (2%) were called active. Rule as the data show it: active = inhibition above about 30%; inactive = below that, where a call was filed. The entries are a selection whose mix differs from that of the whole data set. Entries without a call were filed so in the source.

Target: D(2) dopamine receptor (Homo sapiens) (UniProt P14416)
Test: HTS Assay for Allosteric Antagonists of the Human D2 Dopamine Receptor: Primary Screen for Antagonists; also: 0% is about no effect
Conditions: HEK293 TREx D2 cells, calcium flux, dopamine EC80; at 10 µM; stronger effect = higher value
Summary of the method: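 Inhibition of EC80 dopamine-driven calcium flux, recorded kinetically, defines activity here; cells are a tetracycline-induced HEK293 T-REx line expressing force-coupled D2.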

Sequence of UniProt P14416 (P14416 whole entry, looked up): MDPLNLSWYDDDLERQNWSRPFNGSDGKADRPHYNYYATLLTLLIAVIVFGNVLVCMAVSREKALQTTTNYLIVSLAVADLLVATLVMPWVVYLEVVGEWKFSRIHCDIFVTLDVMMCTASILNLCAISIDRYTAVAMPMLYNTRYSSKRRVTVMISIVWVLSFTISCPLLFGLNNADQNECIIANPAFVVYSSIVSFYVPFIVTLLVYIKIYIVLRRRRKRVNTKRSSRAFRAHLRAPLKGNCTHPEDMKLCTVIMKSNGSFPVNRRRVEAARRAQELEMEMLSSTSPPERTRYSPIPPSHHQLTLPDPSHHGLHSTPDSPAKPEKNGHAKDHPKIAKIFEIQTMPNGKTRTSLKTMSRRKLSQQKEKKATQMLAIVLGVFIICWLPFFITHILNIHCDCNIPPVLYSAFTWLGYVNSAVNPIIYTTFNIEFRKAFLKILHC

Compound | inhibition
CCc1ccccc1NC(=O)c1ccc(F)c(S(=O)(=O)N2CCN(c3cccc(Cl)c3)CC2)c1 | 18.6%
CC(=O)c1cc(-c2ccc(F)cc2)n(CCC(=O)Nc2nc3ccc(C)cc3s2)c1C | -11.1%
COc1ccc(-c2nc3cc(NC(=O)c4ccc(C)cc4)ccc3o2)cc1Cl | 3.25%
O=C(OCc1cc(=O)n2nc(C3CC3)sc2n1)c1ccc(NC(=O)c2ccccc2F)cc1 | 1.27%
Cc1ccc(C(=O)N2CCC(C)CC2)cc1NC(=O)c1nsc2ccccc12 | -14%
CCOc1ccc(Br)cc1C1NC(=O)c2c(sc3c2CCN(C)C3)N1 (configuration not stated) | 20.5%
CCN(c1ccccc1)S(=O)(=O)c1ccc(NC(=O)c2nc(SC(C)C)ncc2Cl)cc1 | 25.6%
COc1cc(C(CC(=O)Nc2ncccc2C)N2Cc3ccccc3C2=O)cc(OC)c1OC (configuration not stated) | -19.7%
Cc1cccc(CNC(=O)CN2C(=O)CSc3c2c(C)nn3-c2ccccc2)c1 | 5.9%
Nc1c(-c2nc(-c3ccc4c(c3)OCO4)cs2)c2ccccn2c1C(=O)c1ccc(Cl)cc1 | 6.86%
CCOc1ccc(NC(=O)Cc2c[nH]c3ccccc23)cc1 | 4.46%
O=C(O)c1ccc(NC(=O)c2ccc(Br)c(S(=O)(=O)N3CCCC3)c2)cc1 | 2.36%
Cc1ccc(SCc2nc(-c3ccc(C(=O)NCC(C)c4ccccc4)cc3)oc2C)cc1 (configuration not stated) | -7.17%
Cc1cccc(CNC(=O)CN2C(=O)CCn3nc(-c4cn(C)c5ccccc45)cc32)c1 | 2.24%
CCCC12CN3CC(C)(CN(C1)C3c1ccc(OCc3ccccc3)cc1)C2=O (configuration not stated) | 15.4%
COc1ccccc1NC(=O)c1sc2nc3n(c(=O)c2c1C)N=C(c1cccc(Br)c1)CS3 | -10.6%
COc1ccc2c(c1)CCc1c(C(=O)Nc3ccc(OC)cc3OC)noc1-2 | -20.6%
COc1ccc(OC)c(/C=C(\C#N)c2nc(-c3ccc(F)cc3)cs2)c1 | -24.6%
COC(=O)c1ccc2c(c1)N(Cc1ccccc1)C(=O)c1ccccc1S2(=O)=O | 0.571%
COc1ccc(Cn2c(C(=O)O)c(CNC3CCCCC3)c3ccc(C)cc32)cc1 | 5.17%
COc1ccc(Cl)cc1NC(=O)CN1Cc2ccccc2C1=O | -6.31%
Cc1nc(S(=O)(=O)N2CCN(c3ccccc3F)CC2)cn1C | 19.4%
CCCNC(=O)C(Cc1ccccc1)NS(=O)(=O)c1ccc2c(c1)c(=O)n(C)c(=O)n2C (configuration not stated) | 3.47%
CCOc1ccc(C(=O)Nc2ccc3c(c2)OCCO3)cc1Br | 11.6%
O=C(CN1CCN(Cc2ccccc2Cl)C1=O)NCCc1ccc(Cl)cc1 | 18%

Compound | inhibition
COc1cc(NS(=O)(=O)c2ccc(-c3cc(C)no3)cc2)cc(OC)c1 | 0.718%
Cc1ccc(-c2csc3ncnc(Nc4ccc(C(=O)O)cc4)c23)cc1 | 19.2%
COc1ccccc1-c1nc2cc(NC(=O)c3ccccc3Cl)ccc2o1 | -3.77%
CCc1ccc(S(=O)(=O)c2nnn3c2nc(NCc2ccccc2)c2cc(Cl)ccc23)cc1 | -13.1%
O=C(Nc1ccc(Cl)cc1)c1cc(S(=O)(=O)NC2CCCCCC2)ccc1F | 4.98%
COc1ccc(NC(=S)N2CCC(N(C)CC3CCCO3)CC2)cc1 (configuration not stated) | active: 30.4%
CCN1C(=O)C(Cc2nc3ccccc3c(=O)n2C)c2cc(C)ccc21 (configuration not stated) | -12.3%
COc1ccc(C(=O)Nc2nc3c(s2)Cc2cc(OC)ccc2-3)cc1 | -1.99%
COc1ccc(NC(=O)CSc2oc(-c3ccco3)nc2S(=O)(=O)c2ccccc2)c(OC)c1 | 0.335%
Cc1ccccc1NCc1nc2ccccc2n1CCOc1ccccc1 | -5.14%
OC(CNCC1COc2ccccc2O1)COCc1cccs1 (configuration not stated) | active: 30.8%
CCN1C(=O)c2ccccc2Sc2ccc(NC(=O)c3ccc(C#N)cc3)cc21 | 14.2%
CN(C(=O)Cn1nnc(-c2ccc(S(C)(=O)=O)cc2)n1)c1ccccc1 | -0.474%
COc1ccc(OC)c(NC(=O)N2CCN(Cc3nc4ccc(C)cc4o3)CC2)c1 | 16.5%
COc1ccc(CCNc2nc3cc(OC)c(OC)cc3c3nc(-c4cccnc4)nn23)cc1OC | 7.54%
COc1ccccc1-c1cc(C(=O)N/N=C/c2ccoc2)c2ccccc2n1 | active: 79.1%
COc1ccc(-c2cn3c(n2)sc2cc(C(=O)Nc4ccc(C)cc4C)ccc23)cc1 | 8.16%
O=S(=O)(c1ccccc1)c1nc(-c2ccccc2F)oc1N1CCOCC1 | 11.5%
COc1cc2ccccc2cc1C(=O)Nc1ccc2oc(-c3cccc(C)c3)nc2c1 | -4.25%
COc1ccccc1N1CCN(CCCn2c(=S)[nH]c3ccccc3c2=O)CC1 | active: 82.4%
CCOc1ccc(NC(=O)CCSc2nc(-c3ccc4c(c3)OCO4)cc(C(F)(F)F)n2)cc1 | 5.09%
COc1ccc(-n2c3c(cc(-c4nc(-c5ccc(Cl)cc5)cs4)c2=O)C(=O)CC(C)(C)C3)cc1Cl | -6.2%
CCOC(=O)CSc1nc2c(sc3ccccc32)c(=O)n1Cc1ccc(OC)cc1 | -12.8%
Nc1c(C(=O)c2ccccc2)sc(Nc2ccc(Cl)c(Cl)c2)c1C(=O)Nc1ccccc1 | 16%
Cc1ccc2c(c1)N(C(=O)N1CCC(C(=O)NCc3ccccc3F)CC1)CC(C)O2 (configuration not stated) | -26.7%

Compound | inhibition
N#Cc1ccccc1OCC(=O)N1CCN(c2ccccc2F)CC1 | -0.954%
Cc1ccc(Cl)cc1NS(=O)(=O)c1ccc(N2CCCCS2(=O)=O)cc1 | -6.49%
Cc1nc(-c2ccc(F)cc2)sc1CCNC(=O)c1ccc(C(C)(C)C)cc1 | 0.279%
Cc1ccc(NC(=O)Cn2c(=O)n(Cc3ccccc3)c(=O)c3c2c2cc(C)ccc2n3C)cc1 | -2%
CC(=O)Nc1cccc(-c2cn3cccnc3n2)c1 | -9.31%
CCCN1CCC(N(CCc2ccccc2)Cc2ccccc2)CC1 | active: 39.5%
Cc1ccc(C(=O)NCC(c2cccnc2)N2CCc3ccccc3C2)cc1C (configuration not stated) | -2.71%
CCOc1ccc(C(=O)c2c(N)c(-c3nc(-c4ccc(OCC)cc4)cs3)c3ccccn23)cc1 | 0.602%
CCOC(=O)N1CCN(C(=O)Cn2ncc3c4ccccc4n(Cc4ccc(F)cc4)c3c2=O)CC1 | -2.36%
COc1ccccc1-c1nnc(C2CCN(S(=O)(=O)c3ccc(F)c(C)c3)CC2)o1 | 4.83%
O=C(COc1ccc(F)cc1)Nc1ccc(Cl)c(-c2nc3ccccc3[nH]2)c1 | -3.21%
Cc1noc(C)c1S(=O)(=O)NCCc1csc2nc(-c3ccc(Cl)cc3)nn12 | -22.4%
CCOC(=O)c1c(NC(=O)COc2ccc(Br)cc2)sc(C(C)=O)c1C | -4.08%
CCCCc1nn2c(=O)cc(COC(=O)c3ccccc3NC(=O)c3cccc(C)c3)nc2s1 | -14.7%
Cc1cccc(NC(=O)c2c(C)oc3ncnc(N4CCCCC4)c23)c1C | -5.22%
O=C(N/N=C/c1cn(-c2ccccc2)nc1-c1cc2ccccc2o1)c1c[nH]c2ccccc12 | active: 34.3%
CCOC(=O)NC(=O)/C(C#N)=N\Nc1cccc(Cl)c1 | active: 38.1%
Cc1nc2ncnn2c(C)c1CCC(=O)NCc1cccc(Cl)c1 | -7.97%
Cc1nn(-c2ccccc2)c2sc(C(=O)Nc3cccc(Br)c3)cc12 | -7.77%
Cc1ccc(NC(=O)c2cc(S(=O)(=O)N3CCCCC3)c[nH]2)cc1F | -8.01%
COc1ccc(C2C=C(c3ccccc3)Nc3nc(NC(=O)/C=C/c4ccc(Cl)cc4)nn32)cc1 (configuration not stated) | -8.28%
O=C(c1ccc(S(=O)(=O)Nc2ccccc2F)cc1)N1CCCC1 | active: 50.6%
CC(CCc1ccccc1)N1CCN(Cc2ccccc2)CC1 (configuration not stated) | active: 60.7%
O=C(c1ccc(Br)o1)N1CCC(Cc2ccccc2)CC1 | active: 49.1%
Cc1cc(C)cc(NC(=O)C/C(N)=N/O)c1 | active: 71.5%

Compound | inhibition
COc1ccccc1NC(=O)C1=C(C)Nc2nc(SCc3cccc(F)c3)nn2C1c1ccc(C(=O)O)cc1 (configuration not stated) | -18.7%
COc1cccc(CNC(=O)c2cc3ccc4cccnc4c3[nH]2)c1 | 0.928%
COc1ccccc1N1CCN(C(=O)c2cc3c(=O)oc4ccccc4c3s2)CC1 | 4.72%
CC1CCN(CCOCCOc2ccc(Cl)cc2Br)CC1 | active: 68.6%
O=C(CSc1nc2c(cnn2-c2ccc(F)cc2)c(=O)[nH]1)Nc1ccccc1C(F)(F)F | 13.9%
CCOc1ccc(/C=C2\CCC(C3CCCC3)C2=O)cc1 (configuration not stated) | active: 37.4%
CCOC(=O)C1CCN(C/C=C/c2ccccc2[N+](=O)[O-])CC1 | active: 48.4%
CCC(=O)N1CCc2cc(S(=O)(=O)CCC(=O)NCc3ccc(OC)cc3)ccc21 | 4.21%
O=C(NCCNC1CCC(c2ccccc2)CC1)c1ccc(F)cc1 (configuration not stated) | active: 84.6%
CCCCn1c(=O)nc2n(-c3ccc(F)cc3)c3ccccc3cc-2c1=O | 7.27%
COC(=O)c1sccc1NC(=O)Nc1ccc(Cl)c(Cl)c1 | active: 43.9%
CC(Sc1nc2c([nH]c3ccccc32)c(=O)n1-c1ccccc1)c1ccccc1 (configuration not stated) | 7.39%
Cc1ccc(-c2cc(C(F)(F)F)n3ncc(-c4ccc(Cl)cc4)c3n2)cc1 | -9.94%
CCOC(=O)C1CCN(C(=O)c2ccc3c(c2)N=C(CC)c2cc(C)ccc2S3)CC1 | -5.35%
Cc1cccc(-c2nc(SCC(=O)N(C)c3ccccc3)c3c(=O)n(C)c(=O)n(C)c3n2)c1 | -4.92%
O=C(c1ccco1)N1CCN(C(=O)c2cnn(-c3cccc(F)c3)c2C2CCNCC2)CC1 | 5.4%
CCCN1C(=O)C2(c3ccccc31)c1c(oc3ccccc3c1=O)C(=O)N2CCCOC(C)C (configuration not stated) | 11.3%
O=C(O)c1ccc(C2Nc3ccccc3-c3nnc(SCc4ccc(Cl)cc4)nc3O2)cc1 (configuration not stated) | -7.28%
CCc1ccc2[nH]c(=O)c(C(c3nnnn3Cc3ccccc3)N3CCOCC3)cc2c1 (configuration not stated) | active: 36.4%
Cn1c(=O)cc(SCC(=O)N2CCN(c3ccccc3)CC2)c2ccccc21 | -19.6%
COc1cccc(C(=O)Nc2ccc(C(=O)OCc3cc(=O)n4nc(C5CC5)sc4n3)cc2)c1 | 3.57%
COc1cc(OC)c(NC(=O)N2CC=C(c3c[nH]c4ccccc34)CC2)cc1Cl | -2.02%
